Results published in PubChem BioAssay AID463173 (ICCB-Longwood Screening Facility, Harvard Medical School, 2010).
Hit rate of the full screen: of about 52,000 compounds, about 4,300 (8.3%) were called active. Rule as the data show it: active = survival mostly below about 52% (no sharp cut-off); inactive = mostly above about 56%. Some of the results follow.

Each molecule was assayed on DeltatarO mutant (assay: S. aureus survival, RN4220 and DeltatarO strains – OD600, teichoic acid synthesis inhibitors, primary screen (AID 463173)). Details: S. aureus RN4220 wild type/DeltatarO growth, OD600, 18 h, active compounds read low, screened at 18.75 µg/mL (by protocol).
`COC(=O)c1cccc(NC(=O)N(C)CCc2c(C)nn(C)c2C)c1` was tested, and the survival was inactive: 80%. For `CCCCn1cc(S(=O)(=O)c2ccc(OCC)cc2)c(=O)c2cc(OC)c(OC)cc21`, the survival was inactive: 73%. In the case of `CCc1ccc(-n2nc3ccc(NC(=O)c4cc(Cl)c(OC)c(Cl)c4)cc3n2)cc1`, the survival was inactive: 83%. In the case of `Cc1ccc(NC(=O)CN(CCc2ccccc2)S(=O)(=O)c2ccccc2)c(C)c1`, the survival was active: 38%. `CCOc1ccc(C2C(=O)N(C3CCCCCC3)CC(=O)N2CCC2=CCCCC2)cc1OC` (stereo not given) was tested, and the survival was inactive: 101%. `CCCC(=O)Nc1ccc2nc(SCC(=O)N3CCCC3)sc2c1` was tested, and the survival was inactive: 74%. `Cc1ccccc1NC(=O)N1CCc2cc(S(=O)(=O)N3CCC(C)CC3)ccc21` was tested, and the survival was inactive: 95%. In the case of `Cc1ccccc1CNC(=O)c1cccc(NC(=O)c2nsc3ccccc23)c1`, the survival was inactive: 83%. With `COc1ccc(-c2nc(C)c(CCNC(=O)c3ccc(F)c(F)c3)s2)cc1` the survival was inactive: 84%. With `COc1ccccc1C1=NS(=O)(=O)N(C)C(C(=O)Nc2cc(OC)c(OC)c(OC)c2)=C1` the survival was inactive: 78%. For `Cc1nc2nc(SCC(=O)Nc3cccc(Cl)c3)nn2c(C)c1Cc1ccccc1`, the survival was inactive: 85%. For `CC(C)OC(=O)CSc1nc2cccnc2n1C1CCCCC1`, the survival was inactive: 86%. For `Cc1ccc2c(c1)c1c(c(=O)n(-c3cccc(Cl)c3)c(=O)n1CC(=O)c1ccc(Cl)cc1)n2C`, the survival was inactive: 133%. In the case of `Fc1ccc(-c2cc(-c3nc(-c4ccccc4)no3)[nH]n2)cc1`, the survival was inactive: 72%. For `COc1ccc(Nc2nc3c(S(=O)(=O)c4ccccc4)nnn3c3ccc(Cl)cc23)c(OC)c1`, the survival was inactive: 124%. For `CC(C)c1ccc(NC(=O)c2cn(C3CCCCC3)c(=O)c3c2c2ccccc2n3C)cc1`, the survival was inactive: 83%. In the case of `CN1CCN(C(c2ccc(Cl)cc2Cl)c2sc3nc(-c4ccco4)nn3c2O)CC1` (stereo not given), the survival was inactive: 76%. In the case of `Cn1nc(C(=O)NCc2cccc(Cl)c2)c2c1-c1ccccc1SC2`, the survival was inactive: 74%. For `CC1(C2CCC3C4CCC5CC6(C/C(=N\O)C5(C)C4C(O)CC32C)OCCO6)OCCO1` (stereo not given), the survival was inactive: 56%. In the case of `COCCNc1ncnc2c1cnn2-c1cc(Cl)ccc1C`, the survival was inactive: 83%. `Cc1ccc(OCC(=O)Nc2ccc(OCc3cc(=O)n4ccsc4n3)cc2)cc1` was tested, and the survival was inactive: 80%. With `CCC(=O)N1c2ccccc2CC1C(=O)NCCc1ccccc1Cl` (stereo not given) the survival was inactive: 116%. With `Cc1ccc(S(=O)(=O)C2(C(=O)Nc3ccc(C)c(Cl)c3)CC2)cc1` the survival was inactive: 21%. `COc1ccc(N2C(=O)CSC23C(=O)N(Cc2ccccc2F)c2ccccc23)cc1Cl` (stereo not given) was tested, and the survival was inactive: 78%. With `COc1ccc(-c2cn3cccnc3n2)cc1NC(=O)COc1ccccc1` the survival was inactive: 83%. `O=C(CSc1ccccc1)Nc1c[nH]c(=O)[nH]c1=O` was tested, and the survival was inactive: 78%. `CC(=O)N(Cc1cc2cc(C)ccc2[nH]c1=O)C1CCCC1` was tested, and the survival was inactive: 68%. In the case of `Cc1c(CC(=O)N2CCCCC2)c(=O)oc2cc3occ(C(C)(C)C)c3cc12`, the survival was inactive: 71%. In the case of `CCC1=Nc2cc(C(=O)NCc3ccccc3OC)ccc2Sc2ccc(Cl)cc21`, the survival was inactive: 88%. In the case of `Cc1c(C(=O)NCc2ccccc2Cl)sc2nc(-c3ccc(F)cc3)cn12`, the survival was inactive: 68%. `O=C(NCc1ccc(F)cc1)c1cc(Sc2ccc(F)cc2F)nc2ccccc12` was tested, and the survival was inactive: 98%. `COc1ccc(CNC(=O)c2ccc(-c3nc(CSc4ccc(C)cc4)c(C)o3)cc2)cc1OC` was tested, and the survival was active: -1%. With `Cc1nn(C(=O)c2ccccc2)c(C)c1S(=O)(=O)N1CCOCC1` the survival was inactive: 62%. For `CCC(=O)N1CCc2cc(S(=O)(=O)NC(C(=O)NCc3ccccc3Cl)C(C)C)ccc21` (stereo not given), the survival was inactive: 83%. `CCOC(=O)C1CCN(C(=O)Cn2c(-c3cccs3)cc3cc(Cl)ccc32)CC1` was tested, and the survival was inactive: 94%. With `CCOC(=O)CN(Cc1ccccc1)C(C(=O)NC1CCCCC1)c1ccc(C)cc1` (stereo not given) the survival was active: -3%. For `CCOc1ccccc1CNS(=O)(=O)c1ccc2c(c1)C(C)(C)C(=O)N2C`, the survival was inactive: 91%. `CC1=C(c2ccc(C)cc2)S(=O)(=O)NC1=NCCCN1CCN(c2cc(C)ccc2C)CC1` was tested, and the survival was inactive: 103%. `Cc1ccc(CNC(=O)CCS(=O)(=O)c2cc3c(cc2Cl)NC(=O)CO3)cc1` was tested, and the survival was inactive: 92%. For `COc1ccc(N2CCN(CC(O)COc3ccc(C)cc3C)CC2)cc1` (stereo not given), the survival was inactive: 98%. In the case of `CC(C)(C)C(=O)NC1(C(F)(F)F)NC(=O)N(c2ccc(F)cc2)C1=O` (stereo not given), the survival was inactive: 77%. `Cc1ccc(Cl)cc1N1CCN(C(=O)CN2C(=O)COc3ccc(S(=O)(=O)N4CCC(C)CC4)cc32)CC1` was tested, and the survival was inactive: 52%. For `O=C(NCc1ccc(Cl)cc1)c1ccc(NC(=O)N2CC3CCCN3c3ccccc32)cc1` (stereo not given), the survival was inactive: 87%. `O=C(Nc1c(Cl)cccc1Cl)c1cccc2c1C(=O)N(C1CCCCC1)C2` was tested, and the survival was inactive: 78%. `COc1ccc(-n2nc(C(=O)NCCCOC(C)C)c3c4ccccc4n(C)c3c2=O)cc1` was tested, and the survival was inactive: 103%.
